This is an account of results in publication PMC4398442.

By UniProt entry, the sequences of proteins in these tests, tags left out.
UniProt Q9UNF0: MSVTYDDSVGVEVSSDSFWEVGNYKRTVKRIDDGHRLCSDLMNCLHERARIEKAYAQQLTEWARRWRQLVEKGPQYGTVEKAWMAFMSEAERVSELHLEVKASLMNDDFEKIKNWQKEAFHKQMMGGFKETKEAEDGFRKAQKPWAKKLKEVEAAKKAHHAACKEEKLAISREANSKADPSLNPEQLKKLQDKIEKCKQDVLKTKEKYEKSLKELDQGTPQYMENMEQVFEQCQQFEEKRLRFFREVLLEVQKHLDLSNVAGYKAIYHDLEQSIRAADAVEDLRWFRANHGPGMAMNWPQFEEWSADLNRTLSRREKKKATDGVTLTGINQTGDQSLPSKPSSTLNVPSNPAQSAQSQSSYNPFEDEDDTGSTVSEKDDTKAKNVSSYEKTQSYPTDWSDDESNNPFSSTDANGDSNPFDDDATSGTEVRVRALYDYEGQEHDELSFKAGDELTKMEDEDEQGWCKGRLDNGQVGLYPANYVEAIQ
UniProt Q8N3F8: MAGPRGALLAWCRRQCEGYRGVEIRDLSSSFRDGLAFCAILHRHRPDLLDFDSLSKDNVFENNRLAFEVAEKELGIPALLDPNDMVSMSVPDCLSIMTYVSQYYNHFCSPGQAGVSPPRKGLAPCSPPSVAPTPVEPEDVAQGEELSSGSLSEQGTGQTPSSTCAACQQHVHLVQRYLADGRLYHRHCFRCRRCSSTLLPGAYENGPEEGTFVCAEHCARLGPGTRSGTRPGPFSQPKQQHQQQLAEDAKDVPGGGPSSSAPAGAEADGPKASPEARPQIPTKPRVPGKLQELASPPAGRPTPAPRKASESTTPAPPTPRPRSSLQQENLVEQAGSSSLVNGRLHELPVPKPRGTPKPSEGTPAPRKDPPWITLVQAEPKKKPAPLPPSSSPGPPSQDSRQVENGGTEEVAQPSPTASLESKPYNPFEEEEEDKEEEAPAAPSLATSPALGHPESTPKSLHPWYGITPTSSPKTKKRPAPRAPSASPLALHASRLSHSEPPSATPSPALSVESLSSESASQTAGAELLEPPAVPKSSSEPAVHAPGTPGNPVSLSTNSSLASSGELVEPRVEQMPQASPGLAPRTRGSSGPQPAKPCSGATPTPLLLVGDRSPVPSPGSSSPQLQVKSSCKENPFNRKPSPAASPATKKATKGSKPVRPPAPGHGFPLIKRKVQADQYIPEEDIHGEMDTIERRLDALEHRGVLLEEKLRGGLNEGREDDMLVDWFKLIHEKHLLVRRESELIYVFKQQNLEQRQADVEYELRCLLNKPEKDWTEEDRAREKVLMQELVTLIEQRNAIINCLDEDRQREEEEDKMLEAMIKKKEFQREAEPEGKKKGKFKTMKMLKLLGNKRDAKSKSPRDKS

Positions count from the first letter of the chain named. These are yes or no findings as the source states them, for the method shown. For some assays here: In cells and extracts the contact can be indirect. Some results given as binding are weak or reduced against the parent protein; the word gives no strength. For some assays here: Sequences can lack the tags named with a protein.

The target in one assay is EHD1 (wt) (UniProt Q9H4M9). The experiment in a line: two-hybrid; S. cerevisiae AH109 co-transformed with Gal4bd and Gal4ad fusions; growth on plates lacking histidine (-HIS) against non-selective (+HIS) plates, 30°C.
Another assay concerns the target T1, EHD3 (wt) (UniProt Q9NZN3).
T1 sequence: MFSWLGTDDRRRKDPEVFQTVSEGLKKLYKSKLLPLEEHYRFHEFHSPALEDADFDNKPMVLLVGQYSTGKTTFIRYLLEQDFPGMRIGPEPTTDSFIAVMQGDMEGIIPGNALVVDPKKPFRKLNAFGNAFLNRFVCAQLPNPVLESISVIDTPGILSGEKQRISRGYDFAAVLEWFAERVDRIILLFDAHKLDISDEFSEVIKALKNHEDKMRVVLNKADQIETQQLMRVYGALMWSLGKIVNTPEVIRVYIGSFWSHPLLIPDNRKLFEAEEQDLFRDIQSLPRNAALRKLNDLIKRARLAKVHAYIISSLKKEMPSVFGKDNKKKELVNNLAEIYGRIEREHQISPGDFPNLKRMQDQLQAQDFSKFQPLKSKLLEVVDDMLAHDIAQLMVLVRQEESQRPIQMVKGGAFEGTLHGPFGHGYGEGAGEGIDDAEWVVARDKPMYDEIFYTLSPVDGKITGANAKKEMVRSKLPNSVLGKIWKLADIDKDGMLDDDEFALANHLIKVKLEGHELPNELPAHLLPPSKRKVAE
The description is as above.

A further assay concerns the target Syndapin2 (UniProt Q9UNF0). Described as above.
A further assay deals with MICAL-L1 (UniProt Q8N3F8). The assay is described as above.
In another assay the target is T2, EHD4 (wt) (UniProt Q9H223).
T2 sequence: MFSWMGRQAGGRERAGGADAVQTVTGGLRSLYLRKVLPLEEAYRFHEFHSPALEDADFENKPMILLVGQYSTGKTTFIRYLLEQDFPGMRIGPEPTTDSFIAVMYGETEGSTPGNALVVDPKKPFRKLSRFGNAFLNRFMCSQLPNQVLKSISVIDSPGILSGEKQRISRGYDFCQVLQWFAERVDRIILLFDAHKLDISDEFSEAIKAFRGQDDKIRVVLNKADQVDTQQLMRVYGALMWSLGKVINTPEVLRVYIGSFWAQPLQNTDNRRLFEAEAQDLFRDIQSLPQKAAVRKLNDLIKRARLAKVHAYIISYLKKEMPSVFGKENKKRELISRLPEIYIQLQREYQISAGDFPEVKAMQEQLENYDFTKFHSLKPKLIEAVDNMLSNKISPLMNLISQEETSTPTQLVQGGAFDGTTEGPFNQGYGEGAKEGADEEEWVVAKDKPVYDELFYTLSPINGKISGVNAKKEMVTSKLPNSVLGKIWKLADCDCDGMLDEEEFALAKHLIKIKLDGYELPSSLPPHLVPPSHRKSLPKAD
The assay is described as above.

Another assay deals with T3, EHD2 (wt) (UniProt Q9NZN4).
T3 sequence: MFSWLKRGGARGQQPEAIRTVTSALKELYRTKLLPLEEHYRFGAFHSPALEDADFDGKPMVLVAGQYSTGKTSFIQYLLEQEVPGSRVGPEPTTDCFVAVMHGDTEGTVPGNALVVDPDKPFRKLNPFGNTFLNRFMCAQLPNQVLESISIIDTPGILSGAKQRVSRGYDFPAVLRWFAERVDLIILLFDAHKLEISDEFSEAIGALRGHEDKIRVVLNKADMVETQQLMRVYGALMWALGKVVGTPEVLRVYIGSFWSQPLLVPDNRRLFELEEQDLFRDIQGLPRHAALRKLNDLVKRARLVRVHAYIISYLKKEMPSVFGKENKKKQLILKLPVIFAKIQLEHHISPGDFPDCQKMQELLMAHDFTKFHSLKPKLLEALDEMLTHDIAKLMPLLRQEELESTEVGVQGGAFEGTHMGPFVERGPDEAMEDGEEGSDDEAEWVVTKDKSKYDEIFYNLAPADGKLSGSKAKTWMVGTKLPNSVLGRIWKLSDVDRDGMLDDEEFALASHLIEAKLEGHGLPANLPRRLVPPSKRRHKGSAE
The description is as above.

A further assay concerns the target T4, EHD1 (wt), Q9H4M9.
T4 chain: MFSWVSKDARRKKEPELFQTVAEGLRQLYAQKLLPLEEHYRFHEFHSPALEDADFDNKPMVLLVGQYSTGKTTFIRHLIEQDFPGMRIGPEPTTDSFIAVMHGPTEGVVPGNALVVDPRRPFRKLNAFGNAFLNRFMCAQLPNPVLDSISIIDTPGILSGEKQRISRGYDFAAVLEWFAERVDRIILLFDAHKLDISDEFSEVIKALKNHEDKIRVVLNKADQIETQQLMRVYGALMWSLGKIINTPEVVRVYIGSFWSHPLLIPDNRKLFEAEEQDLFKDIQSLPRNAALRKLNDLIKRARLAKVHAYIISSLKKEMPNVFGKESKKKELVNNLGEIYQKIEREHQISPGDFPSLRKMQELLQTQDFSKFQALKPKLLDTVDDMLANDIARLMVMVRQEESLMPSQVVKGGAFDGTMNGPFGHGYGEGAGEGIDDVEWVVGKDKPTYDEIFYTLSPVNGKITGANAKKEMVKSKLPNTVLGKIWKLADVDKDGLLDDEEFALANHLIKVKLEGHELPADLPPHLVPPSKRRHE
The description is as above. The note with it: remark: other sources report otherwise.

Assay [1] has as its target Syndapin2 (in HeLa lysate) (human (endogenous in HeLa)) (UniProt Q9UNF0). The experiment in a line: co-IP; HeLa cells transfected with GFP-Myc-EHD2 or mutants, lysed 24 h later; immunoprecipitation with antibodies against Syndapin2, immunoblot with anti-EHD2 antibodies. (A western blot detects proteins with antibodies after separation by electrophoresis.)

B1: EHD1 (wt) (protein, UniProt Q9H4M9 1-534)
chain: T4 chain
Turning to B1, the binding result in the assay with EHD1 (wt), with EHD3 (wt), with Syndapin2, with MICAL-L1 and with EHD4 (wt) was “binds” each time.

B2: EHD2 (wt) (protein, UniProt Q9NZN4 1-543)
chain: T3 sequence
Regarding B2, the binding result with EHD3 (wt) was “no binding”; with Syndapin2, “binds”; with MICAL-L1, “no binding”; with EHD4 (wt), “no binding”; with EHD2 (wt) it was “binds”.

B3: EHD2 (KPF-to-KAF) (protein, UniProt Q9NZN4 1-543)
chain: T3 sequence with P121A
In the case of B3, the binding result with Syndapin2 and in the assay with EHD2 (wt) was “binds” in each case.

B4: EHD2 (wt), Q9NZN4 1-543 (protein)
chain: T3 sequence
Consider B4, for which, in the assay with EHD1 (wt), Q9H4M9, the binding entry was “no binding”.

B5: EHD2 NPF-to-NFP (protein, UniProt Q9NZN4 1-543)
chain: T3 sequence with P127F, F128P
Take B5: the binding result in the assay with Syndapin2 and with EHD2 (wt) was “no binding” in each case.

B6: EHD2 (NPF-to-NPA) (protein, UniProt Q9NZN4 1-543)
chain: T3 sequence with F128A
Take B6: the binding entry with Syndapin2 and in the assay with EHD2 (wt) was “binds” in each case.

B7: GFP-Myc-EHD2 (protein, UniProt Q9NZN4 1-543)
chain: T3 sequence
Consider B7, for which the binding result in assay [1] was “binds”.

B8: EHD2 NPF-to-NPY (protein, UniProt Q9NZN4 1-543)
chain: T3 sequence with F128Y
With B8, the binding entry with Syndapin2 and with EHD2 (wt) was “binds” throughout.

B9: EHD2 (NPF-to-APA) (protein, UniProt Q9NZN4 1-543)
chain: T3 sequence with N126A, F128A
Take B9: the binding result with Syndapin2 and with EHD2 (wt) was “binds” each time.

B10: EHD2 (NPF-to-NAF) (protein, UniProt Q9NZN4 1-543)
chain: T3 sequence with P127A
Consider B10, for which the binding entry with Syndapin2 and in the assay with EHD2 (wt) was “no binding” in each case.

B11: EHD2 (KPF-to-APA) (protein, UniProt Q9NZN4 1-543)
chain: T3 sequence with K120A, F122A
Consider B11, for which the binding entry in the assay with Syndapin2 and with EHD2 (wt) was “binds” each time.
